Laboratory results: ChEMBL document CHEMBL5606460, “ASAP - DENV-2 NS2B-NS3 protease fluorescence single point” (2024)
In all, about 2,000 compounds went through this assay and about 110 (5.5%) showed an effect of 50% or more. The list shows a part of the results.

Target: Genome polyprotein (dengue virus type 2) (UniProt P29990)
[1] = Thailand/16681/1984, Concentration 25.0 uM, Number of replicates 1.0

## c1ccc2c([C@H]3CCN(CCC4CCOCC4)C3)c[nH]c2c1
Thailand/16681/1984, Concentration 49.5 uM, Number of replicates 2.0, Standard deviation 1.27680522674612 %
  inhibition: 2.4%
Thailand/16681/1984, Concentration 99.01 uM, Number of replicates 2.0, Standard deviation 0.5804152090241346 %
  inhibition: 2.68%
Thailand/16681/1984, Concentration 198.0 uM, Number of replicates 2.0, Standard deviation 0.0005418398844560537 %
  inhibition: 3.09%

## NC(=O)c1cn(C[C@H]2CCCN2c2ccnc3ccccc23)nn1
Thailand/16681/1984, Concentration 49.5 uM, Number of replicates 2.0, Standard deviation 1.619804877884872 %
  inhibition: 8.16%
Thailand/16681/1984, Concentration 99.01 uM, Number of replicates 2.0, Standard deviation 0.6247376778551609 %
  inhibition: 17.3%
Thailand/16681/1984, Concentration 198.0 uM, Number of replicates 2.0, Standard deviation 0.4222615202105213 %
  inhibition: 30.3%

## O=Cc1ccc(N2CCC(C(=O)N3CCC(Cc4ccccc4)CC3)CC2)cc1
[1]
  inhibition: 14.5%

## Cn1cnc2[nH]c(C(=O)N3CC[C@H](c4c[nH]c5ccccc45)C3)cc21
Thailand/16681/1984, Concentration 49.5 uM, Number of replicates 2.0, Standard deviation 2.003876801484884 %
  inhibition: -2.49%
Thailand/16681/1984, Concentration 99.01 uM, Number of replicates 2.0, Standard deviation 1.2772748269322285 %
  inhibition: -1.94%
Thailand/16681/1984, Concentration 198.0 uM, Number of replicates 2.0, Standard deviation 1.685869304282425 %
  inhibition: -0.105%

## O=Cc1ccc(N2CCC(C(=O)Nc3cnc(Cl)c(Br)c3)CC2)cc1
[1]
  inhibition: 12.3%

## CNC(=O)[C@H]1CN(S(=O)(=O)c2ccc(Oc3ccccc3Cl)cc2)CCO1
Thailand/16681/1984, Concentration 49.5 uM, Number of replicates 2.0, Standard deviation 0.2669928674711758 %
  inhibition: -4.8%
Thailand/16681/1984, Concentration 99.01 uM, Number of replicates 2.0, Standard deviation 0.624095865646037 %
  inhibition: -4.22%
Thailand/16681/1984, Concentration 198.0 uM, Number of replicates 2.0, Standard deviation 0.6183745152543801 %
  inhibition: -5.47%

## Cc1cn2nnc(C(=O)N[C@H]3CCCCn4c3n[nH]c4=O)c2c(=O)[nH]1
Thailand/16681/1984, Concentration 49.5 uM, Number of replicates 2.0, Standard deviation 0.2359641679366373 %
  inhibition: -0.501%
Thailand/16681/1984, Concentration 99.01 uM, Number of replicates 2.0, Standard deviation 0.10523355791430405 %
  inhibition: -0.563%
Thailand/16681/1984, Concentration 198.0 uM, Number of replicates 2.0, Standard deviation 0.06258385535382655 %
  inhibition: -1.4%

## Cc1c(C(=O)NCc2ccc(Cl)cc2OCCO)ccc(O)c1NC(=O)c1ccncc1F
Thailand/16681/1984, Concentration 49.5 uM, Number of replicates 2.0, Standard deviation 1.9465984757153059 %
  inhibition: -3.14%
Thailand/16681/1984, Concentration 99.01 uM, Number of replicates 2.0, Standard deviation 1.7394020396248402 %
  inhibition: -2.65%
Thailand/16681/1984, Concentration 198.0 uM, Number of replicates 2.0, Standard deviation 1.2400320592735166 %
  inhibition: 0.351%

## COCCN(Cc1cccc2ccccc12)C(=O)C1CCN(c2ccc(C=O)cc2)CC1
[1]
  inhibition: 12.1%

## Cc1cc(CO)c2cccc(NC(=O)[C@@H](N)CCN)c2n1
Thailand/16681/1984, Concentration 49.95 uM, Number of replicates 2.0, Standard deviation 3.3658560886244877 %
  inhibition: -1.14%
Thailand/16681/1984, Concentration 99.9 uM, Number of replicates 2.0, Standard deviation 3.0766976877592507 %
  inhibition: -5.81%

## C[C@@H](Cc1c[nH]c2ccccc12)N1CC[C@H](n2ncc3ccccc32)C1
Thailand/16681/1984, Concentration 49.5 uM, Number of replicates 2.0, Standard deviation 0.03414198186691695 %
  inhibition: 4.01%
Thailand/16681/1984, Concentration 99.01 uM, Number of replicates 2.0, Standard deviation 0.33925313348092145 %
  inhibition: 4.54%
Thailand/16681/1984, Concentration 198.0 uM, Number of replicates 2.0, Standard deviation 0.5533184943542987 %
  inhibition: 4.08%

## CS(=O)(=O)c1ccc(CN2CCC(c3c[nH]c4cccnc34)CC2)cc1
Thailand/16681/1984, Concentration 49.5 uM, Number of replicates 2.0, Standard deviation 0.5966710799073923 %
  inhibition: -0.147%
Thailand/16681/1984, Concentration 99.01 uM, Number of replicates 2.0, Standard deviation 0.18514537353696 %
  inhibition: 1.01%
Thailand/16681/1984, Concentration 198.0 uM, Number of replicates 2.0, Standard deviation 0.21112342655361976 %
  inhibition: 1.68%

## CCn1ccnc(N2CCC[C@H](c3c[nH]c4ccccc34)C2)c1=O
Thailand/16681/1984, Concentration 50.0 uM, Number of replicates 2.0, Standard deviation 0.8053197278101494 %
  inhibition: 11.3%
Thailand/16681/1984, Concentration 100.0 uM, Number of replicates 2.0, Standard deviation 0.062322039130876875 %
  inhibition: 18.6%
Thailand/16681/1984, Concentration 200.0 uM, Number of replicates 2.0, Standard deviation 0.5040021297369135 %
  inhibition: 15.4%

## OB1CCc2c(cccc2N2CC[C@@H](O)C2)O1
Thailand/16681/1984, Concentration 49.5 uM, Number of replicates 2.0, Standard deviation 2.1653827241885084 %
  inhibition: -1.07%
Thailand/16681/1984, Concentration 99.01 uM, Number of replicates 2.0, Standard deviation 1.9510885480745654 %
  inhibition: -0.363%
Thailand/16681/1984, Concentration 198.0 uM, Number of replicates 2.0, Standard deviation 2.0113725552722737 %
  inhibition: 1.02%

## COCCN(C(=O)C1CCN(c2ccc(C=O)cc2)CC1)C1CCN(C)CC1
[1]
  inhibition: 17.6%

## C[C@@H](NC(=O)OCc1ccccc1)C(=O)Nc1cccc(CN)c1
Thailand/16681/1984, Concentration 49.5 uM, Number of replicates 2.0, Standard deviation 1.8366578313187596 %
  inhibition: -7.57%
Thailand/16681/1984, Concentration 198.0 uM, Number of replicates 2.0, Standard deviation 1.0835833369227144 %
  inhibition: -9.56%

## NC(=O)[C@H]1CCCN(Cc2c[nH]c3ccccc23)C1
Thailand/16681/1984, Concentration 49.5 uM, Number of replicates 2.0, Standard deviation 2.5363307513649556 %
  inhibition: -4.76%
Thailand/16681/1984, Concentration 99.01 uM, Number of replicates 2.0, Standard deviation 3.0476015265960577 %
  inhibition: -3.48%
Thailand/16681/1984, Concentration 198.0 uM, Number of replicates 2.0, Standard deviation 3.189992230846324 %
  inhibition: -2.38%

## CCOCCN(CCOCC)C(=O)C1CCN(c2ccc(C=O)cc2)CC1
[1]
  inhibition: 14.5%

## Cc1cc(CO)c2cccc(Cc3cccc(C(=O)NCC(N)=O)c3)c2n1
Thailand/16681/1984, Concentration 49.95 uM, Number of replicates 2.0, Standard deviation 0.5174294413229081 %
  inhibition: 2.44%
Thailand/16681/1984, Concentration 99.9 uM, Number of replicates 2.0, Standard deviation 1.3216010889796208 %
  inhibition: 17.6%

## O=Cc1ccc(N2CCC(C(=O)NCCc3cc(F)cc(F)c3)CC2)cc1
[1]
  inhibition: 10.6%

## O=Cc1ccc(N2CCC(C(=O)Nc3ccc(Br)c(C(F)(F)F)c3)CC2)cc1
[1]
  inhibition: 12.2%

## CCCCCC(=O)N[C@@H](Cc1ccc(CN)cc1)C(=O)N1CCCCC1
Thailand/16681/1984, Concentration 49.5 uM, Number of replicates 2.0, Standard deviation 2.4035677992340028 %
  inhibition: -1.07%
Thailand/16681/1984, Concentration 99.01 uM, Number of replicates 2.0, Standard deviation 1.814641666355821 %
  inhibition: 0.103%
Thailand/16681/1984, Concentration 198.0 uM, Number of replicates 2.0, Standard deviation 1.7246380196648983 %
  inhibition: 0.931%

## O=Cc1ccc(N2CCC(C(=O)N3CCC4(CC3)NC(=O)NC4=O)CC2)cc1
[1]
  inhibition: 12.4%

## COc1ccc2nc(C)c(C)nc2c1N
Thailand/16681/1984, Concentration 49.95 uM, Number of replicates 2.0, Standard deviation 5.411155992937637 %
  inhibition: -4.7%
Thailand/16681/1984, Concentration 99.9 uM, Number of replicates 2.0, Standard deviation 6.1761869582003435 %
  inhibition: -2.52%

## Cc1cc(CO)c2cccc(Cc3cccc(NC(=O)COc4cccc(CN)c4)c3)c2n1
Thailand/16681/1984, Concentration 49.95 uM, Number of replicates 2.0, Standard deviation 2.359561979675839 %
  inhibition: 16.8%
Thailand/16681/1984, Concentration 99.9 uM, Number of replicates 2.0, Standard deviation 1.6748173047848074 %
  inhibition: 34.6%
